In all, about 420,000 compounds went through this assay and about 64,000 (15%) were called active. This list was built around the results that the source calls inconclusive (neither active nor inactive); the mix of calls is not that of the screen. Calls follow the shape of the dose curve; as a rule, active = well fitted inhibition curve with a large enough effect; inconclusive = small, poorly fitted or top-dose-only effect; inactive = flat fitted curve, though single readings scatter. Potencies of inconclusive entries are left out as doubtful fits.
Experiment: qHTS for Inhibitors of human tyrosyl-DNA phosphodiesterase 1 (TDP1): qHTS in cells in absence of CPT; also: nearly all actives have a fitted effect of over 55% in size
Conditions: DT40 Tdp1-/- hTDP1 cells, no CPT, ATP luminescence, 48 h; series mostly up to 46.2 µM
Method in brief: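 Seeded 400 DT40-hTDP1 cells/well (vehicle DMSO, no 20 nM CPT); pinned compounds; ≥48 hr at 37 °C; CellTiter-Glo luminescence as viability measure.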
Potency is read from the fitted curve at half-maximal effect; tags tell the direction and shape of the fitted curve.

| Compound | Potency |
| --- | --- |
| Cc1ccc(NC(=O)Cn2c(=O)n(CCC(=O)N3CCc4ccccc4C3)c(=O)c3ccccc32)c(C)c1 | active: 23.1 µM |
| COc1ccc(C2c3c(-c4ccccc4)n[nH]c3C(=O)N2c2ccc(C(=O)O)cc2)c(OC)c1 (stereo unspecified) | inactive |
| CC1(C)CC(=O)C=C(c2ccc(F)cc2OCc2ccccc2)C1 | inconclusive [inhibitor, single point] |
| Cc1ccc(C(=O)Nc2cccc([N+](=O)[O-])c2)cc1S(=O)(=O)Nc1cccc(C(=O)O)c1 | inconclusive [inhibitor, single point] |
| CN(CCNC(=O)c1cc2c(-c3ccccc3F)nn(C)c2s1)C1CCCCC1 | inconclusive [inhibitor, partial curve] |
| CCOC(=O)N1CCN(C(=O)c2cc3cc(C)ccc3[nH]2)CC1 | inconclusive [inhibitor, single point] |
| Cc1ccc2nc(C(Cl)(Cl)Cl)nc(N/N=C/c3ccc([N+](=O)[O-])cc3)c2c1 | active: 16.4 µM |
| O=C(NNC(=O)c1ccccc1F)c1ccc(S(=O)(=O)N2CCCC2)cc1 | inactive |
| CCN(CC)CCCNC(=O)c1cc2c(Cl)nc3ccccc3c2s1 | inconclusive [inhibitor, partial curve] |
| N#Cc1ccc(OCC(O)CN2CCN(C(c3ccccc3)c3ccccc3)CC2)cc1 (stereo unspecified) | active: 18.4 µM |
| COc1ccc(/C=C/C(=O)N(CCC(N)=O)c2ccccc2)cc1S(=O)(=O)N1CCOCC1 | inactive |
| O=c1cc(CN2CCN(c3ccc(F)cc3)CC2)c2cc3c(cc2o1)CCCC3 | inconclusive [inhibitor, partial curve] |
| Cc1ccc(-c2cnc(C3CC3)o2)cc1S(=O)(=O)Nc1cccc(C#N)c1 | active: 5.8 µM |
| CCC1=C(OC(=O)N(CC)CC)N2C(=O)OC(=NCC3CC3)[C@]2(Cc2ccccc2)[C@H]2C1=CC[C@H]1C(=O)N(CC(=O)OC)C(=O)[C@H]12 | inconclusive [inhibitor, partial curve, poor fit] |
| CCOC(=O)c1cc2c(ccn2C)n1CC(=O)N1CCN(c2cccc(C(F)(F)F)c2)CC1 | active: 16.4 µM |
| Cc1ccc(NS(=O)(=O)c2c(C)nc3sccn3c2=O)cc1 | inactive |
| CC1CCCCC1=NNC(=O)c1ccccc1 (stereo unspecified) | inactive |
| C#CCOn1c(-n2nc(C)cc2C)nc2ccccc2c1=O | inconclusive [inhibitor, single point] |
| CC1CN(C(=O)c2nn(C)cc2[N+](=O)[O-])CC(C)O1 (stereo unspecified) | inconclusive [inhibitor, single point] |
| O=C(Cc1cccs1)NCCS(=O)(=O)N1CCN(c2ccccc2)CC1 | inconclusive [inhibitor, full curve, poor fit] |
| COc1cccc(N2CCN(C(=O)c3ccc(OC)c(S(=O)(=O)NC4CC4)c3)CC2)c1 | active: 16.4 µM |
| Cc1ccc(C(=O)CSc2nnc(-c3ccccc3N)n2C)cc1C | inconclusive [inhibitor, single point] |
| COc1cc(NC(=O)Cn2c(-c3ccccc3)cc(C(C)=O)c2C)cc(OC)c1 | active: 16.4 µM |

| Compound | Potency |
| --- | --- |
| CSCCC(NC(=O)c1ccccc1Br)C(=O)NCC1CCCCC1 (stereo unspecified) | inactive |
| O=c1cc(-c2ccsc2)oc2ccc(-c3ccc4cc[nH]c4c3)cc12 | inconclusive [inhibitor, single point] |
| COc1ccc(/C=C/C(=O)c2ccc(O)cc2)cc1COc1ccc(F)cc1 | inconclusive [inhibitor, single point] |
| COc1ccc(NC(=O)CN2CCC(NC(=O)c3ccc(OC)cc3)CC2)cc1 | inactive |
| CCn1c(COc2ccc3c(c2)CCCC3)nnc1SCC(=O)Nc1ccc(C(=O)OC)cc1 | inconclusive [inhibitor, single point] |
| COc1ccccc1/C=C/C=N/n1c(-c2ccc(C)cc2)n[nH]c1=S | inconclusive [inhibitor, single point] |
| O=C(COc1ccc(Cl)cc1Cl)Nc1ccccc1F | inactive |
| O=C(C[C@@H]1C[C@@H]2c3cc(NC(=O)C4CCOCC4)ccc3O[C@@H]2[C@H](CO)O1)NCc1ccccn1 | inactive |
| CCN(CC)C(=O)COc1ccc(/C(C)=N/Nc2ncc(Cl)cc2Cl)cc1 | inactive |
| N#Cc1ccc(-c2ccc(OCC(=O)NCCc3ccccc3)cc2)cc1 | active: 11.6 µM |
| CCc1noc(C)c1C(=O)N1CCN(c2cccc(Cl)c2)CC1 | inconclusive [inhibitor, single point] |
| Cc1ccc(-c2c(CN3CCN(c4cccc(C)c4C)CC3)csc2C)cc1 | active: 20.6 µM |
| COC(=O)c1c(NC(=O)C(C)(C)C)csc1C | inactive |
| CC(NC(=O)c1ccccc1NC(=O)CN1CCN(c2ccccc2O)CC1)c1ccccc1 (stereo unspecified) | inconclusive [inhibitor, single point] |
| CC(C)(C)c1ccc(CC(=O)N2CCC2(C)C(=O)Nc2cccc3ccccc23)cc1 (stereo unspecified) | inconclusive [inhibitor, single point] |
| COc1cc(C(=O)Nc2ccc(S(=O)(=O)N3CCCCC3)cc2)ccc1OCC(=O)N1CCOCC1 | inactive |
| Cc1cc(O)c(C=O)c2c1C(=O)Oc1c(CO)c(O)c3c(c1O2)C(O)OC3=O (stereo unspecified) | inactive |
| O=c1[nH]c(-c2ccccc2)nc(-c2ccccc2)c1Cl | inactive |
| Cc1ccc(S(=O)(=O)NCCC(=O)NCc2ccc(Cl)cc2)cc1C | inactive |
| CCc1cccc(NC(=O)COC(=O)c2ccccc2OCc2ccccc2Br)c1 | inconclusive [inhibitor, single point] |
| CCc1cc(C(c2ccccn2)N2CCN(C)CC2)c(NC(=O)c2ccccc2)s1 (stereo unspecified) | inconclusive [inhibitor, single point] |
| COc1ccc(NC(=O)CN2CCC3(O)CCCCC3C2c2cc(OC)ccc2OC)cc1 (stereo unspecified) | inconclusive [inhibitor, single point] |
| CCC(NC(=O)CCc1c(C)c2cc3c4c(oc3cc2oc1=O)CCCC4)C(=O)O (stereo unspecified) | inactive |
